45 compounds from PMC4336329 (PLoS ONE, 2015) can be followed below.

Out of some 310,000 compounds screened, about 2,200 (0.71%) showed an effect of 50% or more. The effect is printed as a negative number. The list shows a part of the results.

The target of the test is human ether-à-go-go-related gene (hERG) potassium channel (human, UniProt Q12809). The test can be described thus: primary screen, population patch clamp on CHO cells stably expressing hERG.
Chain of human ether-à-go-go-related gene (hERG) potassium channel (Q12809 whole entry, looked up): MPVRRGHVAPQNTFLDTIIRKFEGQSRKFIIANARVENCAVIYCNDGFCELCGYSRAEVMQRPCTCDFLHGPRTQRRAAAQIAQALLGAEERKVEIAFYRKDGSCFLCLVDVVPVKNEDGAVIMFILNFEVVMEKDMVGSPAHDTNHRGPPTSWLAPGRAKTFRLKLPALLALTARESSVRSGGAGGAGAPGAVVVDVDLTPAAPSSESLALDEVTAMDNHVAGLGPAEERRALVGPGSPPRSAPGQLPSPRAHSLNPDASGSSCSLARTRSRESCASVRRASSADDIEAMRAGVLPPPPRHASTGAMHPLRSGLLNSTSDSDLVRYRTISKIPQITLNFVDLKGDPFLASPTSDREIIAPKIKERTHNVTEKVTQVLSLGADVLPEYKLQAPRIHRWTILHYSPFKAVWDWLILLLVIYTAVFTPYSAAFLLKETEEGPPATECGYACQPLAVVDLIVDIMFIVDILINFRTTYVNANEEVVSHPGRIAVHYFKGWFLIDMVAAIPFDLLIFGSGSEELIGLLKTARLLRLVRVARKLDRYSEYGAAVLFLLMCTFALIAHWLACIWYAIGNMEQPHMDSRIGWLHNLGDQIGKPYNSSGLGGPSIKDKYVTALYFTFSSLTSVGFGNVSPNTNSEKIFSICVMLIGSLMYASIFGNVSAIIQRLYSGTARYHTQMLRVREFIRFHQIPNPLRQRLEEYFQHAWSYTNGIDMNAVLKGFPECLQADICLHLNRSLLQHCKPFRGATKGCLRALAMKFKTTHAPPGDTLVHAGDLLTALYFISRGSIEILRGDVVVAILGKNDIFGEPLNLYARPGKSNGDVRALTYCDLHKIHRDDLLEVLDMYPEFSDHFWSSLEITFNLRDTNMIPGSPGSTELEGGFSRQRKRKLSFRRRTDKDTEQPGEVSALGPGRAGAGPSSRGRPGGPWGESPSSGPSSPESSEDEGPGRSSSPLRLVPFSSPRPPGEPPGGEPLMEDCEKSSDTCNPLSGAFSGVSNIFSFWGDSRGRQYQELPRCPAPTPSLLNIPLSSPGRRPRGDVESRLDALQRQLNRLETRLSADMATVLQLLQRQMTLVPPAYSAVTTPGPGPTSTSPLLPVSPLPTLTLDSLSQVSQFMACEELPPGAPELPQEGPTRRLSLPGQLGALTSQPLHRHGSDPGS
As to `Cc1c(C(=O)O)cccc1-c1ccc(/C=N/n2cnnc2)o1`, the “hERG current change (%, negative = inhibition) at 1uM” value was found to be 11.4%. In the case of `CSc1oc(-c2ccccc2)nc1S(=O)(=O)c1ccc(F)cc1`, the “hERG current change (%, negative = inhibition) at 1uM” value was found to be 2.24%. On to `Cc1ccc2[nH]cc(CCNC(=O)C3CCCO3)c2c1` (stereo not drawn), for which the “hERG current change (%, negative = inhibition) at 1uM” value was found to be 14.3%. In the case of `COc1ccc(S(=O)(=O)N2CCOCC2)cc1C(=O)N1CCCCCC1`, the “hERG current change (%, negative = inhibition) at 1uM” value is 4.83%. For the compound `O=C(c1ccc2c(=O)n(-c3ccccc3)c(=S)[nH]c2c1)N1CCN(c2ccccc2)CC1`, the “hERG current change (%, negative = inhibition) at 1uM” value worked out at 4.37%. Turning to `O=C(NCCc1ccc(F)cc1)N[C@@H](Cc1ccccc1)C(=O)O`, the “hERG current change (%, negative = inhibition) at 1uM” value came to 12.1%.

In the case of `CN(Cc1cccc(F)c1)C(=O)CNS(=O)(=O)c1ccc2ccccc2c1`, the “hERG current change (%, negative = inhibition) at 1uM” value amounted to 10%.

Regarding `O=C(CCn1c(=O)oc2ccccc21)Nc1ccc2c(c1)OCCO2`, the “hERG current change (%, negative = inhibition) at 1uM” value was 10.7%. In the case of `Cc1ccc(C2(C)NC(=O)N(CC(=O)NC(=O)NCCC(C)C)C2=O)cc1` (stereo not drawn), the “hERG current change (%, negative = inhibition) at 1uM” value is given as 8.18%.

In the case of `CCOC(=O)N1CCN(C(=O)c2oc3ccc(S(=O)(=O)N4CC(C)CC(C)C4)cc3c2C)CC1` (stereo not drawn), the “hERG current change (%, negative = inhibition) at 1uM” value was 0.354%. On to `COc1cccc(/C=C/c2nc3c(cnn3-c3ccccc3)c(=O)[nH]2)c1`, for which the “hERG current change (%, negative = inhibition) at 1uM” value came to 9.85%. As to `O=C(Nc1cccnc1Cl)c1cc([N+](=O)[O-])ccc1Cl`, the “hERG current change (%, negative = inhibition) at 1uM” value is on record as 11.9%. Next, `Cc1ccc(C(=O)NC2CC(C)(C)NC(C)(C)C2)cc1Cl`: 12.4%; `CCOc1ccc(NC(=O)CSc2nc(C3CC3)nc3ccccc23)cc1`: 16.7%.

On to `Cc1cc(NC(=O)COc2ccccc2C#N)no1`, for which the “hERG current change (%, negative = inhibition) at 1uM” value worked out at 10.3%. Next, `Cc1cccc(N(C)C(=O)C2CCCN2S(=O)(=O)c2cccc3nsnc23)c1` (stereo not drawn): 15%. Consider `COC(=O)c1cn(C(=O)c2ccccc2Cl)c2ccccc12`, for which the “hERG current change (%, negative = inhibition) at 1uM” value is recorded as -19.9%. With `Cc1ccc(O)c(C(=O)/C=C/c2ccc3c(c2)OCCCO3)c1`, the “hERG current change (%, negative = inhibition) at 1uM” value is listed as -2.95%. As for `Cc1ccc2c(cnn2C(=O)CCCC(=O)NCc2cccc(F)c2)c1`, the “hERG current change (%, negative = inhibition) at 1uM” value is on record as 13.1%.

Regarding `CC(C)c1[nH]nc2c1C(c1ccco1)C(C#N)=C(N)O2` (stereo not drawn), the “hERG current change (%, negative = inhibition) at 1uM” value is recorded as 9.51%. For `S=C(Nc1cc(Cl)cc(Cl)c1)NC1CCN(Cc2ccccc2)CC1`, the “hERG current change (%, negative = inhibition) at 1uM” value stood at 5.58%.

In the case of `O=C(CC(c1ccccc1)c1ccccc1O)NCc1ccco1` (stereo not drawn), the “hERG current change (%, negative = inhibition) at 1uM” value is reported as 3.21%. Regarding `CN1N=C(C(=O)N2CCCC(Nc3ccc(F)c(F)c3)C2)CCC1=O` (stereo not drawn), the “hERG current change (%, negative = inhibition) at 1uM” value was found to be 17.7%. Turning to `CN1CN(c2cccc([N+](=O)[O-])c2)CN=C1N[N+](=O)[O-]`, the “hERG current change (%, negative = inhibition) at 1uM” value is recorded as 6.81%. With `CC1=C[C@H]2Cc3cc(C)cc(C)c3S(=O)(=O)[C@@H]2C=C1` the figure was 9.32%; with `CCSc1nnc(NC(=O)CSc2nc3c(c(=O)n2-c2ccccc2)SCC3)s1`, 3.43%. In the case of `CC(=O)Nc1cccc(C(=O)Nc2cccc3ncccc23)c1`, the “hERG current change (%, negative = inhibition) at 1uM” value is 14.1%. For `COc1cc(/C=N/NC(=O)c2nnn(-c3nonc3N)c2C(C)C)ccc1O`, the “hERG current change (%, negative = inhibition) at 1uM” value is 11.5%. Take `O=C1CSC(c2ccccc2)N1CCc1ccccc1` (stereo not drawn): the “hERG current change (%, negative = inhibition) at 1uM” value was determined as 10.3%. In the case of `Cc1[nH]nc(-c2ccc(O)cc2O)c1-c1ccc(Cl)cc1`, the “hERG current change (%, negative = inhibition) at 1uM” value is on record as -4.13%. For the compound `CC(=O)Nc1c(C(=O)NCc2ccccc2)nnn1Cc1ccccc1`, the “hERG current change (%, negative = inhibition) at 1uM” value was 7.76%. Next, `O=C(Cc1ccccc1)Nc1ccc(NC(=O)c2ccco2)nc1`: 14.1%; `CC(=O)Nc1c2c(nn1-c1ccc(C)cc1C)CSC2`: 7.98%. Next, `Cc1cc(SCc2ccc(Br)cc2)nc(=O)[nH]1`: 15.7%; `CCCNCc1cc(Br)ccc1OCC(=O)NCCc1ccccc1`: -10.7%; `O=C(CN1C(=O)NC2(CCc3ccccc32)C1=O)c1ccc2c(c1)OCCO2` (stereo not drawn): 7.73%.

Consider `CC1(C)Cc2nc(NC3CCCCC3)c(C#N)cc2CO1`, for which the “hERG current change (%, negative = inhibition) at 1uM” value came to 4.81%.

Take `COc1c(C)cc(C(=O)C2CCCN(C(=O)c3cccc(F)c3)C2)cc1C` (stereo not drawn): the “hERG current change (%, negative = inhibition) at 1uM” value turned out to be 4.21%. With `CC(C)CNC(=O)C(=O)Nc1ccc(N(C)C)cc1`, the “hERG current change (%, negative = inhibition) at 1uM” value is 9.87%.

For `CC(=O)N/C(=C\c1ccc(F)cc1)C(=O)N(C)C`, the “hERG current change (%, negative = inhibition) at 1uM” value worked out at 11.7%. Take `COC1C=CC(CNC(=O)c2cc3c(=O)n4cccc(C)c4nc3n2C)(OC)O1` (stereo not drawn): the “hERG current change (%, negative = inhibition) at 1uM” value was determined as 12.9%. With `O=[N+]([O-])c1ccc(/C=C/c2ccc3ccccc3n2)cc1` the figure was 14.2%; with `C=C[C@@H]1c2cc(C)ccc2N(S(=O)(=O)c2ccc(C)cc2)[C@H](c2ccccc2)C1(C#N)C#N`, 14.4%; with `CCCn1nc(NC(C)=O)c2cc3cccc(C)c3nc21`, 10.6%. Turning to `Cn1c(Cc2cccc3ccccc23)nnc1SCc1ccc([N+](=O)[O-])cc1`, the “hERG current change (%, negative = inhibition) at 1uM” value was -1.98%.
